# Experimental data from PubChem BioAssay AID488969 (Vanderbilt High Throughput Screening Facility, 2010).
# The full ranking holds about 110,000 compounds; the median of “z-score” is about -0.1, and the highest 2% start at about 2. This is one part of the list. Activity calls are given as the source filed them.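 How the source made its calls: active means z-score in the third read window above 3 or below -3; inactive means the rest.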
# Target: Metabotropic glutamate receptor 8 (Rattus norvegicus) (UniProt P70579)
# Assay: mGluR8 Gi/Go-coupled signaling modulation – cell-based, rat, thallium flux, HTS, primary screen (AID 488969)
# Details: HEK293 rat mGluR8, GIRK (G protein-gated inwardly rectifying potassium channel) thallium flux, FluoZin2; at 10 µM; stronger effect = higher value; submaximal glutamate (EC20) added with thallium
# Sequence of UniProt P70579 (P70579 whole entry, looked up): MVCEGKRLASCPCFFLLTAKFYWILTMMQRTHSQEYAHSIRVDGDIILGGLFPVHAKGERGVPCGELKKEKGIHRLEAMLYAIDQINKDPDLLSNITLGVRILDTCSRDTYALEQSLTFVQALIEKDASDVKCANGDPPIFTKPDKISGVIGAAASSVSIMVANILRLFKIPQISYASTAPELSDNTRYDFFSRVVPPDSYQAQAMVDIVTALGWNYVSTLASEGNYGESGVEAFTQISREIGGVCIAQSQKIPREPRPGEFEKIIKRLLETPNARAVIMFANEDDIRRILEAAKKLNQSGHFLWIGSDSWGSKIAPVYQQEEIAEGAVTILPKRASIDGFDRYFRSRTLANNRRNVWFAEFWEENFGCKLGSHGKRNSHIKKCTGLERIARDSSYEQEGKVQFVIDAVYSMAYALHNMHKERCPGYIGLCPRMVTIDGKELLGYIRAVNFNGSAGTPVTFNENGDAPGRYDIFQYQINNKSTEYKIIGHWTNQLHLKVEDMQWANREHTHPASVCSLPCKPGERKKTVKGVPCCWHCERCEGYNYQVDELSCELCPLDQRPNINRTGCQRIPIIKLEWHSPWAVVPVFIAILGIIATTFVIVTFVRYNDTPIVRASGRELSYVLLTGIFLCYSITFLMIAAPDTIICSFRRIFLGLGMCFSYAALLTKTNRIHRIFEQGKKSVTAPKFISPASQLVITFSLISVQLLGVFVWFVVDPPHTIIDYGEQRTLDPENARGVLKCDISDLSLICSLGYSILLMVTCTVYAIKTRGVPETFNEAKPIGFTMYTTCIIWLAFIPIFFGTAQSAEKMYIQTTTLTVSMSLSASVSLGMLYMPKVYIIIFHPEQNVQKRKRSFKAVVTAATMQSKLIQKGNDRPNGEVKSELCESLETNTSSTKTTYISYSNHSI
row,SMILES,z-score
1,Nc1nc(Nc2ccc(Cl)cc2)n[nH]1,0.393
2,Nc1n[nH]c(S(=O)(=O)CCCc2ccccc2)n1,0.7
3,Cc1cccc(C)c1NC1=C(Cl)C(=O)OC1OC(C)C (stereo unspecified),-0.166
4,C=CCn1c(NCCOC)nc2c1c(=O)n(C)c(=O)n2C,-0.0168
5,CCc1nn(-c2ccccc2)c(N)c1-c1ccc(OC)c(OC)c1,1.57
6,O=C1C2C3C=CC(C3)C2C(=O)N1c1ccc(-c2nc3ccccc3o2)cc1 (stereo unspecified),-0.419
7,O=C(c1ccc2nc3ccccc3c(=O)n2c1)N1CCN(Cc2ccc3c(c2)OCO3)CC1,-0.487
8,CCOC(=O)c1ccc(NC(=O)CSC2=NC(=O)C(CC)C(=O)N2)cc1 (stereo unspecified),1.28
9,Cc1ccccc1NC(=O)CSc1nc2cc3c(cc2cc1C)CCC3,-0.0799
10,COc1ccc(Nc2ncnc3c2cnn3-c2ccccc2)cc1OC,-0.331
11,COC(=O)CNC(=O)COc1ccccc1,-0.267
12,c1ccc2c(c1)CC1(CCCC1)n1nnnc1-2,-0.648
13,CCOC(=O)C1C(=O)NC(C)C1c1ccccc1 (stereo unspecified),0.0703
14,COc1ccc(OC)c(S(=O)(=O)Nc2ccccc2F)c1,0.127
15,O=C(CN1CCN(Cc2ccccc2Cl)C1=O)NC1CCCCCC1,-1.05
16,COc1ccc(-c2[nH]nc3c2C(c2ccsc2)C(C#N)=C(N)O3)cc1 (stereo unspecified),0.0634
17,N#Cc1ccc(CNc2cnccn2)cc1,-0.0761
18,CCn1c(COc2cccc(OC)c2)nnc1SCC(=O)Nc1ccccc1C(=O)OC,-1.81
19,O=c1ccn(-c2cccc(C(F)(F)F)c2)nc1-c1ccn(-c2ccccc2F)n1,-0.283
20,CCCc1nn(C)c2c(=O)[nH]c(-c3ccccc3OCC)nc12,-0.237
21,O=C(CCc1c[nH]c2ccccc12)NC1CC1,0.058
22,N=c1c2c(n(Cc3cccc(Cl)c3)c3c1CCC3)CCCC2,-0.273
23,O=C(c1ccco1)N1CCN(c2ccc(Cl)cc2)CC1,-0.265
24,CCCCC(=O)C1=C(N2CCCC2)CC(C)(C)CC1=O,0.311

row,SMILES,z-score
1,CCCCN(CCCC)C(=S)NC(=O)C(C)(C)C,active: 5.35
2,Cn1cccc1/C=N/NC(=O)C12CC3CC(CC(C3)C1)C2,-0.182
3,Cc1cccc(C)c1NC(=S)NCCc1ccccn1,-0.183
4,Cc1cc(C)nc(N2CCC(C(=O)NCCc3ccccc3)CC2)n1,0.0693
5,CCCN1C2=C(C(=O)CCC2)C(c2ccc(F)cc2)C2=C1c1ccccc1C2=O (stereo unspecified),-0.266
6,CC(C)(C)c1ccc(C(=O)OCC(=O)Nc2sc3c(c2C#N)CCC3)cc1,-0.201
7,C=CCc1cccc2cc(NC(C)=O)c(=O)oc12,-0.0388
8,COc1ccc(C(=O)Nc2nc(-c3ccc(S(=O)(=O)N4CCOCC4)cc3)cs2)cc1,-0.442
9,CC(=O)c1ccc(NC(=O)c2ccccc2Sc2ncnc3sc(C)c(C)c23)cc1,-0.343
10,COc1ccc(N(C(=O)c2cnsn2)C(C(=O)NC2CCCCC2)c2ccncc2)cc1 (stereo unspecified),0.0313
11,O=C(CSc1nc2ccccc2c2nc3ccccc3n12)NCc1ccco1,-0.0376
12,Cc1c(S(=O)(=O)Nc2ccc3c(c2)OCCO3)c(=O)n(C)c(=O)n1C,-0.227
13,CC1CCc2cc(F)ccc2N1C(=O)CSc1nnc2c3cc(F)ccc3n(C)c2n1 (stereo unspecified),-0.125
14,CC1(C)C(C#N)=C(N)OC2=C1C(=O)CCC2,0.297
15,Cc1nn2cc(-c3ccccc3)nc2s1,0.515
16,C/C(CC(=O)NC12CC3CC(CC(C3)C1)C2)=N\NC(=O)Cc1cccs1,-0.0237
17,CC(C)OCCCNC(=O)c1ccc(NS(C)(=O)=O)cc1,0.427
18,CNC(=O)c1ccc(N(Cc2ccccc2)S(C)(=O)=O)cc1,-0.214
19,COc1ccc2cc(C#N)c(NC(C)C)nc2c1,-0.494
20,Cc1cc(C)n2cc(CSc3nnnn3-c3ccc(Cl)cc3)nc2n1,-0.269
21,CC1(C)Cc2c(sc(NC(=O)c3ccco3)c2C(=O)O)CO1,-0.292
22,COc1cc(-c2noc(CCCC(=O)NC3CCCCC3)n2)cc(OC)c1OC,0.572
23,O=C(N/N=C/c1ccc(Br)cc1)c1cc[n+](Cc2ccccc2)cc1,-0.137
24,O=C(CN1CCCCC1)Nc1nnc(-c2ccc([N+](=O)[O-])cc2)s1,0.0367

row,SMILES,z-score
1,COc1cccc(-c2cc(C(F)(F)F)nc(NCc3ccco3)n2)c1,-0.0697
2,CCCc1ccc(Oc2cn[nH]c2-c2ccc(O)cc2O)cc1,0.221
3,C=C(C)CSc1nnc(-c2cccc(S(=O)(=O)N(C)C)c2)n1-c1cc(OC)ccc1OC,-1.38
4,CC(C)CC(N=C1NC(C)(C)Cc2ccccc21)C(=O)O (stereo unspecified),-0.0733
5,Cc1ccc(-n2nc(C)c3c(C)c(CCC(=O)NCc4ccco4)c(C)nc32)cc1,-0.789
6,CCOc1ccc(N(CC(=O)NCc2ccccc2)S(=O)(=O)c2c(C)noc2C)cc1,0.0536
7,N#CCOc1nc(N2CCOCC2)nc(N2CCOCC2)n1,-0.0212
8,O=S(=O)(Nc1ccc(S(=O)(=O)Nc2cccc3ccccc23)cc1)c1ccccc1,active: -3.06
9,Fc1ccc(/C=C/c2nnc(-c3cccs3)o2)cc1,-0.493
10,Cc1cccc(-c2nc(CSCC(=O)NCc3cccs3)c(C)o2)c1,-0.318
11,COc1cc(-c2nc(-c3cccc(C(F)(F)F)c3)no2)cc(OC)c1OC,0.166
12,COc1ccccc1-n1cnc2c(c1=O)c1nc3ccccc3nc1n2-c1ccc(C)cc1,-0.63
13,COc1ccc(O)c(-c2cc(-c3ccccc3[N+](=O)[O-])[nH]n2)c1,-0.247
14,CCCCn1c(SCC(=O)c2ccc3c(c2)OCCO3)nnc1-c1ccco1,-0.591
15,C=CCn1c(SCc2c(F)c(F)c(F)c(F)c2F)nc(O)cc1=O,-0.151
16,C/C(N)=C(/C#N)C(=O)CSc1nnc(COc2cc(C)ccc2C)o1,0.16
17,O=[N+]([O-])c1cc(S(=O)(=O)NCCCN2CCOCC2)ccc1Cl,-0.267
18,Cc1ccc(-c2ccc(/C=C/C(=O)c3ccccc3)o2)cc1,-0.233
19,O=C(COc1ccc(/C=N/NC(=O)c2ccccc2O)cc1)Nc1ccc([N+](=O)[O-])cc1,-0.123
20,Cc1ccc(C)c(NS(=O)(=O)c2cc(C(=O)NCCSC3CCCCC3)ccc2C)c1,0.136
21,COc1ccc(-c2csc(NC(=O)COC(=O)c3ccc(Br)o3)n2)cc1,-0.242
22,COC(=O)c1cccc(N(C(=O)CNC(=O)c2ccco2)C(C(=O)NC2CCCC2)c2ccco2)c1 (stereo unspecified),0.0125
23,Cc1nnc(SCc2cccc(CSc3nnc(C)s3)c2)s1,-0.0567
